# Results published in PubChem BioAssay (NCATS).
# Where “and” joins values, the source holds several entries; their conditions need not be identical. Equal values may be shown once. The inconclusive results got no clear call from the source; some entries with a clear call stand among them for comparison. For some of these results: Where the call is inconclusive, the potency comes from a doubtful curve fit. Calls of active or inactive are those of the source. The call rests on the fitted dose curve; in most records, active means well fitted curve in the direction sought with a large enough effect; inconclusive means small, poorly fitted or top-dose-only effect, or another doubt; inactive means no such curve, though single readings can be large; an effect the other way counts as inactive or inconclusive.
# What was measured:
# [1] = system: HEK293; assay: Cytotoxic Profiling of Annotated Libraries Using Quantitative High-Throughput Screening (AID 1296008); conditions: Five cell lines viability, CellTiter-Glo ATP luminescence, 48-72 h; max response: stronger effect = lower value; further: nearly all actives have a fitted effect of over 60% in size
# Procedure, shortened: (§1)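 Cytotoxicity was measured as CellTiter-Glo ATP luminescence, read after 10 min at room temperature. Compound treatment of the cells lasted 48 or 72 hr at 37 degrees Celsius in a qHTS format.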
# [2] = system: CAOV3; assay: Primary qHTS to identify gynecologic anti-cancer compounds using libraries of approved drugs and bioactive compounds (AID 1345084); conditions: Gynecologic cancer cell panel viability, ATPlite luminescence, 48 h; series mostly up to 57.5 µM; further: nearly all actives have a fitted effect of over 55% in size
# Procedure, shortened: (§2)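 Luminescence from the ATPlite ATP-monitoring reagent indicates viable cell number; lower signal means cytotoxicity. Cells received compound 16 h after seeding and were exposed for 48 h across five concentrations.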
# [3] = system: SKOV3; assay: as above; conditions: Gynecologic cancer cell panel viability, ATPlite luminescence, 48 h; series mostly up to 57.5 µM
# Procedure, shortened: as §2
# [4] = system: C33A; assay: as above; conditions: Gynecologic cancer cell panel viability, ATPlite luminescence, 48 h; series mostly up to 57.5 µM
# Procedure, shortened: as §2
# [5] = system: Hek293T; assay: as above; conditions: Gynecologic cancer cell panel viability, ATPlite luminescence, 48 h, control line for the selectivity index; series mostly up to 57.5 µM
# Procedure, shortened: as §2
# [6] = system: HaCat; assay: Cytotoxic Profiling of Annotated Libraries Using Quantitative High-Throughput Screening (AID 1296008); conditions: Five cell lines viability, CellTiter-Glo ATP luminescence, 48-72 h; max response: stronger effect = lower value; further: nearly all actives have a fitted effect of over 60% in size
# Procedure, shortened: as §1
# [7] = system: KB-3-1; assay: as above; conditions: Five cell lines viability, CellTiter-Glo ATP luminescence, 48-72 h; max response: stronger effect = lower value
# Procedure, shortened: as §1
# [8] = system: NIH3T3; assay: as above; conditions: Five cell lines viability, CellTiter-Glo ATP luminescence, 48-72 h; max response: stronger effect = lower value
# Procedure, shortened: as §1
# [9] = system: MCC-13; assay: qHTS assay to identify novel small-molecules to repurpose for Merkel cell carcinoma treatment (AID 1296009); conditions: MCC and control cell lines, CellTiter-Glo viability, 72 h; series mostly up to 46 µM; further: nearly all actives have a fitted effect of over 60% in size
# Procedure, shortened: (§3)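 After compound transfer in DMSO, plates were kept 72 hr at 37 degree celsius. Luminescent ATP signal from CellTiter-Glo served as viability measure, normalized against DMSO and no-cell controls.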
# [10] = system: MCC-26; assay: as above; conditions: MCC and control cell lines, CellTiter-Glo viability, 72 h; activity change, negative = cytotoxicity: at 46 µM (top of the series)
# Procedure, shortened: as §3
# [11] = system: UISO; assay: as above; conditions: MCC and control cell lines, CellTiter-Glo viability, 72 h; series mostly up to 46 µM
# Procedure, shortened: as §3
# [12] = system: WaGa; assay: as above; conditions: MCC and control cell lines, CellTiter-Glo viability, 72 h; series mostly up to 46 µM
# Procedure, shortened: as §3
# [13] = system: Es-2; assay: Primary qHTS to identify gynecologic anti-cancer compounds using libraries of approved drugs and bioactive compounds (AID 1345084); conditions: Gynecologic cancer cell panel viability, ATPlite luminescence, 48 h; series mostly up to 57.5 µM; further: nearly all actives have a fitted effect of over 55% in size
# Procedure, shortened: as §2
# [14] = system: JEG-3; assay: as above; conditions: Gynecologic cancer cell panel viability, ATPlite luminescence, 48 h; series mostly up to 57.5 µM
# Procedure, shortened: as §2
# [15] = system: PA-1; assay: as above; conditions: Gynecologic cancer cell panel viability, ATPlite luminescence, 48 h; series mostly up to 57.5 µM
# Procedure, shortened: as §2
# [16] = system: OV90; assay: as above; conditions: Gynecologic cancer cell panel viability, ATPlite luminescence, 48 h; series mostly up to 57.5 µM
# Procedure, shortened: as §2
# [17] = system: CASKI; assay: as above; conditions: Gynecologic cancer cell panel viability, ATPlite luminescence, 48 h; series mostly up to 57.5 µM
# Procedure, shortened: as §2
# [18] = system: HeLa; assay: as above; conditions: Gynecologic cancer cell panel viability, ATPlite luminescence, 48 h; series mostly up to 57.5 µM
# Procedure, shortened: as §2
# [19] = system: MKL-1; assay: qHTS assay to identify novel small-molecules to repurpose for Merkel cell carcinoma treatment (AID 1296009); conditions: MCC and control cell lines, CellTiter-Glo viability, 72 h; series mostly up to 46 µM; further: nearly all actives have a fitted effect of over 60% in size
# Procedure, shortened: as §3
# On the % scale 0 is the no-effect control and ±100 the full control effect; potency means the concentration at half of the fitted maximal effect; tags describe the fitted curve by direction and shape.
smiles,measurement,setting,value
CC(C)OC(=O)c1cc(C(=O)OC(C)C)cc([N+](=O)[O-])c1,max response,[1],inactive: 4.1%
same,Potency,[2],inactive
same,Potency,[3],"inconclusive: 8.91 µM [rising, single point]"
CC[C@@H](C)[C@H](NC(=O)[C@H](CC1CCCCC1)NC(=O)c1ccno1)C(=O)N1CCC2(CCc3ccccc32)CC1,Potency,[1],"inconclusive: 20.6 µM [inhibitor, single point]"
same,Potency,[4],inactive
same,Potency,[2],inactive
COc1ccnc2c1CCCCC2S(=O)c1nc2ccccc2[nH]1 (stereo not given),max response,[1],inactive: -19.1%
same,Potency,[4],inactive
same,Potency,[2],"inconclusive: 8.91 µM [cytotoxic, single point]"
same,Potency,[3],inactive
O=C1c2ccccc2C(=O)c2c1ccc(O)c2O,Potency,[1],"inconclusive: 26.6 µM [inhibitor, single point]"
same,Potency,[5],inactive
CC(C)C[C@@H](C(=O)N[C@H](C(=O)OC1CCCC1)c1ccccc1)[C@H](O)C(=O)NO,Potency,[6],"inconclusive: 14.8 µM [inhibitor, partial curve]"
same,Potency,[7],"inconclusive: 37.2 µM [inhibitor, single point]"
same,Potency,[8],"inconclusive: 23.5 µM [inhibitor, partial curve]"
same,Potency,[9],inactive
same,Potency,[10],inactive
same,Potency,[11],"inconclusive: 26.4 µM [inhibitor, partial curve, poor fit]"
same,Potency,[12],active: 7.43 µM
CC1(C)NC(=O)N(c2ccc([N+](=O)[O-])c(C(F)(F)F)c2)C1=O,Potency,[1],"inconclusive: 33.5 µM [inhibitor, single point]"
same,Potency,[4],inactive
O=C(CCCN1CCC(O)(c2ccc(Cl)cc2)CC1)c1ccc(F)cc1,Potency,[1],"inconclusive: 37.2 µM [inhibitor, single point]"
same,Potency,[11],"inactive and inconclusive: 18.8 µM [inhibitor, partial curve, poor fit]"
same,Potency,[2],"inconclusive: 39.8 µM [cytotoxic, single point]"
same,Potency,[13],inactive
same,Potency,[14],inactive
same,Potency,[15],"inconclusive: 22.4 µM [cytotoxic, partial curve, poor fit]"
same,Potency,[3],"inconclusive: 20 µM [rising, single point]"
CN1CCC[C@@H]1c1cccnc1,outcome,[6],inactive
C/C(=N\O)c1ccc(OCC(=O)N2CCCCC2)cc1,max response,[1],inactive: 2.8%
same,Potency,[13],"inconclusive: 31.6 µM [cytotoxic, single point]"
same,Potency,[14],"inconclusive: 35.5 µM [cytotoxic, single point]"
same,Potency,[16],"inconclusive: 25.1 µM [cytotoxic, single point]"
Cn1nnc2c(C(N)=O)ncn2c1=O,max response,[1],inactive: 1.76% and inactive: -7.24%
same,Potency,[17],inactive
same,Potency,[18],"inconclusive: 39.8 µM [cytotoxic, single point]"
same,Potency,[3],inactive
O=C1NC(=O)C(=Cc2ccc3nccnc3c2)S1,max response,[1],inactive: -10.3%
same,Potency,[12],"inconclusive: 2.57 µM [inhibitor, full curve]"
COc1ccc2cc(CCC(C)=O)ccc2c1,outcome,[1],inactive
same,Potency,[5],"inconclusive: 17.8 µM [cytotoxic, partial curve, poor fit]"
same,Potency,[14],"inconclusive: 28.2 µM [cytotoxic, partial curve, poor fit]"
same,Potency,[16],"inconclusive: 17.8 µM [cytotoxic, partial curve, poor fit]"
O=C(O)c1cccnc1Nc1cccc(C(F)(F)F)c1,max response,[1],inconclusive: -33.7% [inhibitor]
same,Potency,[12],"inconclusive: 29.9 µM [inhibitor, single point]"
same,Potency,[18],"inconclusive: 39.8 µM [cytotoxic, single point]"
same,Potency,[16],"inconclusive: 39.8 µM [cytotoxic, single point]"
CON=C(C(=O)N[C@@H]1C(=O)N2C(C(=O)OCOC(=O)C(C)(C)C)=C(C=Cc3scnc3C)CS[C@H]12)c1csc(N)n1,Potency,[1],"inconclusive: 11.8 µM [inhibitor, single point]"
same,Potency,[12],"inconclusive: 33.2 µM [inhibitor, single point]"
CCCOC(=O)c1ccc(O)cc1,Potency,[6],"inconclusive: 48.6 µM [inhibitor, single point]"
C=Cc1c(C)c2cc3[nH]c(cc4nc(cc5nc(cc1[nH]2)C(C)=C5CCC(=O)O)C(CCC(=O)O)=C4C)c(C)c3C=C,max response,[1],inactive: -10.7%
same,Potency,[16],inactive
same,Potency,[3],"inconclusive: 5.01 µM [rising, single point]"
Cc1cccc(C)c1NC(=O)c1ccccc1C(=O)O,max response,[6],inactive: 1.31%
CCCn1cnc2c1c(=O)n(CCCCC(C)=O)c(=O)n2C,max response,[1],inactive: -11.1%
same,Potency,[4],inactive
same,Potency,[3],inactive
CC(C)c1ccc2oc3nc(N)c(C(=O)O)cc3c(=O)c2c1,max response,[6],inactive: -17.6%
same,outcome,[6],inactive
same,Potency,[4],active: 8.91 µM
same,Potency,[2],active: 6.31 µM
same,Potency,[17],active: 4.47 µM
same,Potency,[13],active: 7.08 µM
same,Potency,[5],active: 7.08 µM
same,Potency,[14],active: 7.94 µM
same,Potency,[16],active: 6.31 µM
same,Potency,[15],active: 5.62 µM
same,Potency,[3],active: 7.08 µM
O=C(O)Cc1ccc2c(c1)C(=O)c1ccccc1CO2,max response,[1],inactive: -3.93%
same,Potency,[3],inactive
CCC[C@@H]1C[C@@H](C(=O)N[C@@H]([C@H]2O[C@H](SC)[C@H](O)[C@@H](O)[C@H]2O)[C@@H](C)O)N(C)C1,max response,[1],inactive: -5.82% and inactive: -16.1%
same,Potency,[11],inactive
same,Potency,[3],"inconclusive: 7.08 µM [cytotoxic, single point]"
O=c1c2ccccc2nc2n1CCc1c-2[nH]c2ccccc12,Potency,[1],"inconclusive: 29.1 µM [inhibitor, single point]"
same,Potency,[11],"inconclusive: 5.26 µM [inhibitor, full curve]"
same,Potency,[18],inactive
same,Potency,[3],"inconclusive: 0.631 µM [cytotoxic, full curve, poor fit]"
O=C(Nc1ccccc1)OCC(CN1CCCCC1)OC(=O)Nc1ccccc1 (stereo not given),Potency,[1],"inconclusive: 21.1 µM [inhibitor, partial curve]"
same,Potency,[11],"inconclusive: 29.9 µM [inhibitor, single point]"
same,Potency,[2],"inconclusive: 31.6 µM [cytotoxic, partial curve, poor fit]"
same,Potency,[5],"inconclusive: 39.8 µM [cytotoxic, single point]"
same,Potency,[16],"inconclusive: 17.8 µM [cytotoxic, single point]"
same,Potency,[3],"inconclusive: 5.01 µM [cytotoxic, single point]"
COC(=O)C1=C(C)NC(C)=C(C(=O)OCCN2CCN(C(c3ccccc3)c3ccccc3)CC2)C1c1cccc([N+](=O)[O-])c1 (stereo not given),Potency,[6],"inconclusive: 33.5 µM [inhibitor, single point]"
same,Potency,[7],"inconclusive: 29.1 µM [inhibitor, single point]"
same,max response,[7],inactive: -4.82%
same,Potency,[8],"inconclusive: 1.33 µM [inhibitor, partial curve, poor fit]"
same,Potency,[11],"inconclusive: 26.6 µM [inhibitor, single point]"
same,Potency,[4],"inconclusive: 35.5 µM [cytotoxic, single point]"
same,Potency,[2],"inconclusive: 39.8 µM [cytotoxic, single point]"
same,Potency,[15],"inconclusive: 31.6 µM [cytotoxic, single point]"
same,Potency,[3],"inconclusive: 25.1 µM [cytotoxic, partial curve, poor fit]"
COc1ccc2nc(NC(=O)Nc3ccccc3)sc2c1,Potency,[1],"inconclusive: 33.5 µM [inhibitor, single point]"
same,Potency,[12],"inconclusive: 29.9 µM [inhibitor, single point]"
same,Potency,[4],"inconclusive: 31.6 µM [cytotoxic, single point]"
same,Potency,[2],"inconclusive: 39.8 µM [cytotoxic, single point]"
same,Potency,[17],active: 12.6 µM
same,Potency,[13],active: 8.91 µM
same,Potency,[18],"inconclusive: 39.8 µM [cytotoxic, single point]"
same,Potency,[5],active: 14.1 µM
same,Potency,[14],active: 20 µM
same,Potency,[16],active: 22.4 µM
same,Potency,[15],active: 25.1 µM
same,Potency,[3],"inconclusive: 35.5 µM [cytotoxic, single point]"
CCNC(=O)c1noc(-c2cc(C(C)C)c(O)cc2O)c1-c1ccc(CN2CCOCC2)cc1,Potency,[6],active: 469 nM and active: 41.1 nM
same,Potency,[7],"inconclusive: 93.5 nM [inhibitor, full curve, poor fit] and inconclusive: 29.1 nM [inhibitor, full curve]"
same,Potency,[8],active: 264 nM and active: 51.7 nM
same,Potency,[9],active: 0.209 µM
same,Potency,[10],"inconclusive: 0.118 µM [inhibitor, full curve, poor fit]"
same,Potency,[4],inconclusive: 10 µM
same,Potency,[17],inconclusive: 7.94 µM
same,Potency,[13],"inconclusive: 0.158 µM [cytotoxic, full curve]"
same,Potency,[18],"inconclusive: 0.316 µM [cytotoxic, full curve, poor fit]"
same,Potency,[5],inconclusive: 0.316 µM
same,Potency,[16],active: 3.98 µM
same,Potency,[15],active: 0.251 µM
same,Potency,[3],inconclusive: 0.0794 µM
C=C[C@H]1CN2CC[C@H]1C[C@H]2[C@H](O)c1ccnc2ccc(OC)cc12,Potency,[1],"inconclusive: 6.51 µM [inhibitor, partial curve, poor fit]"
same,Potency,[12],"inconclusive: 33.5 µM [inhibitor, single point]"
same,Potency,[16],"inconclusive: 20 µM [cytotoxic, partial curve, poor fit]"
O=C1CCCC2=C1C(c1[nH]ncc1Cl)N=C(Nc1nc3ccccc3o1)N2 (stereo not given),Potency,[1],"inconclusive: 37.2 µM [inhibitor, single point] and inconclusive: 29.1 µM [inhibitor, single point]"
same,Potency,[13],inactive
O[C@@H](COc1cccc2ncccc12)CN1CCN(C2c3ccccc3[C@@H]3[C@H](c4ccccc42)C3(F)F)CC1 (stereo not given in full),Potency,[6],"inconclusive: 33.5 µM [inhibitor, partial curve, poor fit]"
same,max response,[6],inactive: -3.25%
same,Potency,[7],"inconclusive: 25.9 µM [inhibitor, single point]"
same,Potency,[8],"inconclusive: 26.4 µM [inhibitor, single point]"
same,Potency,[19],"inconclusive: 21.1 µM [inhibitor, single point]"
same,Potency,[11],"inconclusive: 14.8 µM [inhibitor, partial curve, poor fit]"
same,Potency,[2],"inconclusive: 28.2 µM [cytotoxic, single point]"
same,Potency,[13],inactive
